Measurements taken from the RNAGym collection of RNA variant scans (doi:10.1093/nar/gkz1192).
Read counts are not given, so values of variants with three or more changes are uncertain.

B1: CPEB3 Ribozyme (parent)
chain: UAACAGGGGGCCACAGCAGAAGCGUUCACGUCGCAGCCCCUGUCAGAUUCUGGUGAAUCUGCGAAUUCUGCUGUAUAUCUC

Variants of: B1
Assay: self-cleavage, relative activity (ratio to wild type); higher = more cleavage; in vitro, sequencing
How it was run: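 Relative activity was defined as the cleaved/total read fraction for a variant divided by the same fraction for the unmutated ribozyme. CPEB3 self-cleaving ribozyme libraries were made by rounds of error-prone PCR, barcoded, and transcribed in vitro with T7 RNA polymerase for 5 hours at 37°C, and cleavage ran through transcription plus a 15 min DNase I step before EDTA. Illumina sequencing of template-switched reverse transcripts gave the reads, and DNA sequencing mapped the barcodes. Averages come from three batches, using variants with at least 5 reads.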
U41A G46A U60A U80A gave a self-cleavage of 0.27.
U41A G46C U72A showed a self-cleavage of 0.08.
U41A G46U U54C U76C gave a self-cleavage of 0.11.
In the case of U41A G53C U69A U78C, the self-cleavage is reported as 0.07.
With U41A U43A C50A the self-cleavage was 0.18.
Variant U41A U43A U67C has a self-cleavage of 0.1.
Work on U41A U43C U58A U67C yielded a self-cleavage of 0.33.
Work on U41A U43G U58A U60G U76C yielded a self-cleavage of 0.17.
U41A U48C G55U gave a self-cleavage of 0.11.
Variant U41A U48C U49G has a self-cleavage of 0.09.
Variant U41A U48C U54A U60G U72C has a self-cleavage of 0.12.
For U41A U48C U72A, the self-cleavage was 0.25.
With U41A U48C U78A the self-cleavage was 0.18.
For U41A U48C U80C, the self-cleavage was 0.38.
U41A U49A U51C showed a self-cleavage of 0.21.
With U41A U49A U76C U80C the self-cleavage was 0.16.
U41A U49C A56G A77U gave a self-cleavage of 0.42.
U41A U49C A64G gave a self-cleavage of 0.4.
Work on U41A U49C U69C yielded a self-cleavage of 0.12.
With U41A U51A U67A U72C U80C the self-cleavage was 0.08.
With U41A U51C U54A C59U G73U the self-cleavage was 0.23.
For U41A U51G U67A U72A, the self-cleavage was 0.07.
For U41A U54A A64G U67C U76C, the self-cleavage was 0.12.
With U41A U54C A65G U69C U72C U80C the self-cleavage was 0.09.
U41A U54G A56G showed a self-cleavage of 0.25.
Work on U41A U58C U67C yielded a self-cleavage of 0.1.
Work on U41A U58C U76A yielded a self-cleavage of 0.14.
Variant U41A U58G A64G A65G U76C has a self-cleavage of 0.06.
With U41A U60A A65G the self-cleavage was 0.44.
U41A U60C U74C A75G showed a self-cleavage of 0.1.
U41A U66C A75U showed a self-cleavage of 0.36.
Variant U41A U66C U67C U72C has a self-cleavage of 0.06.
U41A U66C U78C showed a self-cleavage of 0.13.
For U41A U74A U78C, the self-cleavage was 0.07.
Variant U41A U74C A75G has a self-cleavage of 0.26.
In the case of U41C A45G A57G U60C, the self-cleavage is reported as 1.13.
Work on U41C A45G U80C yielded a self-cleavage of 0.81.
Variant U41C A45U A75G U76A has a self-cleavage of 0.35.
For U41C A45U C62U, the self-cleavage was 0.21.
U41C A47C U80C gave a self-cleavage of 0.59.
In the case of U41C A47G U48C U49A A56G C68A U74A, the self-cleavage is reported as 0.16.
Variant U41C A47G U51A U69C has a self-cleavage of 0.53.
Variant U41C A47G U60C C71A has a self-cleavage of 0.33.
With U41C A47U U72A U80C the self-cleavage was 0.4.
For U41C A56G A65G U80C, the self-cleavage was 0.2.
For U41C A56G U66C U72C U78A, the self-cleavage was 0.4.
With U41C A57C U69C U72A the self-cleavage was 0.16.
U41C A57G C62A U67C gave a self-cleavage of 0.39.
With U41C A57G U76C the self-cleavage was 0.98.
Variant U41C A57U C81U has a self-cleavage of 1.03.
Work on U41C A64G U67C yielded a self-cleavage of 0.35.
With U41C A64G U69A the self-cleavage was 0.49.
U41C A64U U72C U80C showed a self-cleavage of 0.35.
U41C A77G U80A gave a self-cleavage of 1.21.
U41C C50A G52U U60C A77G showed a self-cleavage of 0.21.
With U41C C50G U67C the self-cleavage was 0.17.
U41C C59U U74A gave a self-cleavage of 1.05.
Variant U41C C62U A65G has a self-cleavage of 0.21.
Variant U41C G42U A56G U74A has a self-cleavage of 0.09.
For U41C G53A G61A U78G, the self-cleavage was 0.91.
For U41C G63A A64G, the self-cleavage was 0.52.
U41C G63C U67C U69C gave a self-cleavage of 0.23.
In the case of U41C G63U A77U, the self-cleavage is reported as 1.15.
Work on U41C U43A U60A yielded a self-cleavage of 0.2.
For U41C U43C A45G A57U U66A U76C C81U, the self-cleavage was 0.07.
Variant U41C U43C A56G has a self-cleavage of 0.31.
U41C U43C A77G gave a self-cleavage of 0.52.
Work on U41C U43C G55A U66C U74A yielded a self-cleavage of 0.09.
In the case of U41C U43C G61C, the self-cleavage is reported as 0.04.
In the case of U41C U43C G73U, the self-cleavage is reported as 0.94.
With U41C U43C U49A A64U U76C U78C the self-cleavage was 0.14.
Work on U41C U43C U51A U80C yielded a self-cleavage of 0.4.
U41C U43C U60C U74A showed a self-cleavage of 0.46.
U41C U49A A56G A65G G73C U74C U78C gave a self-cleavage of 0.39.
Variant U41C U49A G63A U72C U78C has a self-cleavage of 0.88.
Work on U41C U49C A65G yielded a self-cleavage of 0.11.
Work on U41C U49C A65U U74A U76C yielded a self-cleavage of 0.15.
U41C U49C G61A C62U U78G gave a self-cleavage of 0.13.
In the case of U41C U49C U60C G63U C79U, the self-cleavage is reported as 0.18.
U41C U49C U67C showed a self-cleavage of 0.23.
Variant U41C U49C U72C A77G has a self-cleavage of 0.41.
For U41C U51A A56U, the self-cleavage was 0.99.
Variant U41C U51A A57G has a self-cleavage of 0.64.
Work on U41C U51A C62U yielded a self-cleavage of 0.21.
